Test results taken from the supplement of paper PMC3334620.
In all, about 33,000 sequences were measured (“E-score (-0.5 to 0.5)”: median about -0.043, highest 2% from about 0.37 on). This is one part of the list.

What follows are sequences tested against T1, Upc2 (UniProt Q12151) (assay: PBM E-score (8-mer binding enrichment) (E-score (-0.5 to 0.5)); higher = stronger / more preferred TF binding; most listed sequences are background and not binding sites). Conditions: protein concentration: 200 nM; construct: GST-full length.
T1 sequence: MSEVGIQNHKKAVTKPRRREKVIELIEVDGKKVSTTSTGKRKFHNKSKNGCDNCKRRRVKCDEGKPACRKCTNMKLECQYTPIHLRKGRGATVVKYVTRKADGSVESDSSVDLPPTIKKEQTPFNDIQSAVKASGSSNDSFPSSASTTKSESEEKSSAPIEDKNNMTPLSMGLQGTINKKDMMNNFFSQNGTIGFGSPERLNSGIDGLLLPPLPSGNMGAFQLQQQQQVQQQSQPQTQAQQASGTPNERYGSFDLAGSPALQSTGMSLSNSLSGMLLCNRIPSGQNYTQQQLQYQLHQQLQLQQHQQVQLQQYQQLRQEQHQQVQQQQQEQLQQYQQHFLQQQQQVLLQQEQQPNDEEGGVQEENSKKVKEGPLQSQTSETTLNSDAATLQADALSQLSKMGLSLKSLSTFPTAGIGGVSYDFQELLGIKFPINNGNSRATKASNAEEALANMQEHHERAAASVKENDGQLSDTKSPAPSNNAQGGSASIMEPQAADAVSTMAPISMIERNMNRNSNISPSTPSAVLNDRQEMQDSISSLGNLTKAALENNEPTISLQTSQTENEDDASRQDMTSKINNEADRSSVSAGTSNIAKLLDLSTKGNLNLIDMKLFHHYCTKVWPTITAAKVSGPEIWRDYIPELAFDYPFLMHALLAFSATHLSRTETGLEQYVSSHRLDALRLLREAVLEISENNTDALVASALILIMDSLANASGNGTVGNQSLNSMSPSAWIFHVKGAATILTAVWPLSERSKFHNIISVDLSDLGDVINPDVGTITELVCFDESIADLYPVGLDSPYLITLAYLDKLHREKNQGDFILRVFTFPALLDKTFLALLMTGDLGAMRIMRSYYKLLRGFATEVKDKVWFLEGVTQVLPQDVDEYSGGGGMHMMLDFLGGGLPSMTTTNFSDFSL
Method in brief: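 Each ungapped eight-base word and its reverse complement, pooled, received an E-score from the Universal PBM Analysis Suite. Underlying scans, normalised with masliner, recorded fluorescent anti-GST bound to GST-tagged yeast transcription factors. These were applied at about 100-200 nM to universal all-10-mer Agilent arrays double-stranded by primer extension.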

Sequence | PBM E-score
AGACTAAC | -0.122
ACCGTAAC | 0.27
AACCAGAT | 0.0627
GGGAGTTA | -0.0875
CGGACCAA | -0.0814
CGGGTCTC | 0.00304
ATACTCAA | 0.0423
CTCCAACA | -0.134
CATACGAC | 0.466
CATTAGGC | -0.217
AGTTCAAC | 0.00196
CATGCCGA | 0.0455
AGTCTACA | -0.115
CAACTGTG | -0.215
AGGGGGCG | 0.0377
AGACCTAA | -0.0495
CAATCCCC | -0.169
TCTAGAAA | -0.00692
TAATACGA | 0.429
CTCTATAC | 0.397
AGCGCTAA | 0.15
AAGTTAAG | -0.141

Sequence | PBM E-score
ATTAGTGG | -0.127
ACCGTTTA | 0.458
AATGTGGT | -0.156
CGGACTCA | -0.244
TAACAAGA | -0.275
AATAACCC | 0.0105
GGACTCCC | -0.22
AAATACAG | -0.0577
GATATGAC | -0.138
ACCTTCCA | 0.0128
AGGGCTTA | -0.107
ACGACCTA | 0.362
ATGCAGTG | -0.107
AATTCGCT | 0.192
AGCGTGAG | -0.135
GCAAGATA | 0.0262
CCTGTGGA | -0.331
GTGCTGGA | -0.0861
CTAGATGA | -0.00114
CAGGCACA | -0.374
AGAGGTGC | -0.139
GAGGTTTA | 0.0651

Sequence | PBM E-score
GTAATAAC | 0.0598
ACGCTAAC | 0.128
GCGACCGC | 0.08
ATGCCGGC | -0.13
GACGCCAC | -0.192
ATCGGACC | -0.0439
CCCCCAAC | -0.255
GTAGCAGA | 0.00158
ACCCCGCG | -0.0712
AAGGAAGC | -0.232
TAGAACCA | -0.0454
ACCTCAGT | -0.0386
AGTGAGTC | -0.211
AAGCGTTA | 0.0474
ATTTAGAG | -0.107
GCCCTTCC | -0.338
CAATTTGC | -0.192
GCTGGTCA | -0.0962
ATATGCAG | -0.22
CCTCAAAG | -0.39
AGCAGTGA | -0.0456
AGGGTCGA | -0.147

Sequence | PBM E-score
AACTGTCT | 0.00544
CCGTTTAG | 0.468
ATGGTGGA | -0.213
GCGAAGTA | 0.0732
ACCGGGGC | -0.16
CACGGTGG | -0.079
ATCGACAC | 0.0177
ACGGTGAC | -0.0336
CTTCACAA | -0.117
ACAATGAG | -0.0711
CCACGCTC | -0.281
AAGCGGAC | -0.133
ATTCGCTG | 0.0613
AACCGCTT | 0.0344
ATCGGGAG | -0.172
GACCGCGC | -0.0894
CGAGAAAC | 0.173
ACGTCGAT | 0.0778
ACTAACTC | -0.16
ACTTGTCT | -0.132
